In all, about 81,000 sequences were measured (“one-hybrid fitness for binding NBS DNA”: median about -0.1, highest 2% from about 0.36 on). The list shows a part of the results.
B1: Caulobacter ParB omega fusion; a variant is named by its letters at X, in order, B8GW30 (parent)
chain: MESVVVGEPGMSEGRRGLGRGLSALLGEVDAAPAQAPGEQLGGSREAPIEILQRNPDQPRRTFREEDLEDLSNSIREKGVLQPILVRPSPDTAGEYQIVAGERAWRAAQRAGLKTVPIMVRELDDLAVLEIGIIENVQRADLNVLEEALSYKVLMEKFERTQENIAQTIGKSXSHVANXMRLLXLPDEVQSYLVSGELTAXHARAIAAAADPVALAKQIIEGGLSVRETEALARKAPNLSAGKSKGGRPPRVKDTDTQALESDLSSVLGLDVSIDHRGSTGTLTITYATLEQLDDLCNRLTRGI

Variants of: B1
Assay: one-hybrid fitness for binding NBS DNA (the Noc-binding site; scaled: cognate 1, non-cognate 0); higher = stronger binding
Conditions: with NBS DNA site
Method in brief: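 Bacterial one-hybrid selection in E. coli USO rpoZ- hisB- pyrF- with a HIS3 reporter carrying the site 19 bp from the promoter, screening Caulobacter ParB libraries with four specificity codons randomised (NNS). Cells grew 48 hours at 37°C on M9-minus-histidine plus 0.1 mM IPTG and 5 mM 3-AT. Plasmids before and after selection were Illumina-sequenced, three replicate libraries pooled, and variants under 10 reads dropped. Fitness is the log change in variant-to-wild-type read ratio, rescaled to cognate 1, non-cognate 0.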

Row | Variant | one-hybrid fitness for binding NBS DNA
1 | VNMC | ≤ 0.2
2 | AMVR | ≤ 0.2
3 | LSVM | ≤ 0.2
4 | KMPV | ≤ 0.2
5 | PTWR | ≤ 0.2
6 | NASW | ≤ 0.2
7 | DRHT | ≤ 0.2
8 | LYNI | ≤ 0.2
9 | HHGV | ≤ 0.2
10 | VIDW | ≤ 0.2
11 | QVDP | ≤ 0.2
12 | RQQY | ≤ 0.2
13 | YCFG | ≤ 0.2
14 | RCVP | ≤ 0.2
15 | ENGW | ≤ 0.2
16 | MYPC | ≤ 0.2
17 | NFSL | ≤ 0.2
18 | CAAF | ≤ 0.2
19 | LFKK | ≤ 0.2
20 | FAHS | ≤ 0.2
21 | FVSS | ≤ 0.2
22 | YTYW | ≤ 0.2
23 | PEFG | ≤ 0.2
24 | TTWR | ≤ 0.2

Row | Variant | one-hybrid fitness for binding NBS DNA
25 | PMNC | ≤ 0.2
26 | YELR | ≤ 0.2
27 | IQYR | ≤ 0.2
28 | LEMG | ≤ 0.2
29 | TFQV | ≤ 0.2
30 | RNMK | ≤ 0.2
31 | SAGV | ≤ 0.2
32 | RLMI | ≤ 0.2
33 | VAYC | ≤ 0.2
34 | GVQS | ≤ 0.2
35 | WVTF | ≤ 0.2
36 | RGFF | ≤ 0.2
37 | PIDV | ≤ 0.2
38 | PDRM | ≤ 0.2
39 | QARC | 0.353
40 | SINI | ≤ 0.2
41 | QYLI | ≤ 0.2
42 | RGCP | ≤ 0.2
43 | TVDN | ≤ 0.2
44 | VTYI | ≤ 0.2
45 | NTPM | ≤ 0.2
46 | PSGT | ≤ 0.2
47 | QKTG | ≤ 0.2
48 | PVKE | ≤ 0.2

Row | Variant | one-hybrid fitness for binding NBS DNA
49 | IPSF | ≤ 0.2
50 | RKFM | ≤ 0.2
51 | QEYI | ≤ 0.2
52 | SVMT | ≤ 0.2
53 | LQHT | ≤ 0.2
54 | FQMS | ≤ 0.2
55 | CKIL | ≤ 0.2
56 | PAET | ≤ 0.2
57 | TAIS | ≤ 0.2
58 | YKNC | ≤ 0.2
59 | RLGT | 0.389
60 | YYHL | ≤ 0.2
61 | QYDL | ≤ 0.2
62 | GRTV | ≤ 0.2
63 | NSAD | ≤ 0.2
64 | VEMS | ≤ 0.2
65 | ACRG | ≤ 0.2
66 | GVQN | ≤ 0.2
67 | RTGT | 0.575
68 | ASEM | ≤ 0.2
69 | AHFR | ≤ 0.2
70 | NLNN | ≤ 0.2
71 | YNQC | ≤ 0.2
72 | PPSY | ≤ 0.2

Row | Variant | one-hybrid fitness for binding NBS DNA
73 | HWAT | ≤ 0.2
74 | HVEA | ≤ 0.2
75 | GGMA | ≤ 0.2
76 | PVYC | ≤ 0.2
77 | HPHC | ≤ 0.2
78 | LPGE | ≤ 0.2
79 | RAAQ | ≤ 0.2
80 | QHMY | ≤ 0.2
81 | EKPV | ≤ 0.2
82 | PLPQ | ≤ 0.2
83 | QFVA | ≤ 0.2
84 | RRGN | 0.324
85 | HDDQ | ≤ 0.2
86 | TDGR | ≤ 0.2
87 | PRTM | ≤ 0.2
88 | FTRD | ≤ 0.2
89 | AYVR | ≤ 0.2
90 | RVSC | ≤ 0.2
91 | RCVQ | 0.215
92 | SCEQ | ≤ 0.2
93 | KTYS | ≤ 0.2
94 | AGTR | ≤ 0.2
95 | RRFP | ≤ 0.2
96 | QNPV | ≤ 0.2

Row | Variant | one-hybrid fitness for binding NBS DNA
97 | RSCA | ≤ 0.2
98 | YKGC | ≤ 0.2
99 | RVLW | ≤ 0.2
100 | RWTC | ≤ 0.2
101 | GFYV | ≤ 0.2
102 | QITW | ≤ 0.2
103 | RLYM | ≤ 0.2
104 | HEMM | ≤ 0.2
105 | ERTS | ≤ 0.2
106 | NQGS | ≤ 0.2
107 | DHCA | ≤ 0.2
108 | QGTT | ≤ 0.2
109 | KHTG | ≤ 0.2
110 | NGYG | ≤ 0.2
111 | QLSW | ≤ 0.2
112 | HQNS | ≤ 0.2
113 | VDWS | ≤ 0.2
114 | TFWL | ≤ 0.2
115 | ALLS | ≤ 0.2
116 | KDSR | ≤ 0.2
117 | LTDA | ≤ 0.2
118 | GIHL | ≤ 0.2
119 | QWLV | ≤ 0.2
120 | TMKM | ≤ 0.2

Row | Variant | one-hybrid fitness for binding NBS DNA
121 | LKCF | ≤ 0.2
122 | NLIH | ≤ 0.2
123 | PIHH | ≤ 0.2
124 | RGVW | ≤ 0.2
125 | KRFR | 0.469
126 | SLCF | ≤ 0.2
127 | YHVV | ≤ 0.2
128 | IALT | ≤ 0.2
129 | LNIN | ≤ 0.2
130 | APMD | ≤ 0.2
131 | SVAL | ≤ 0.2
132 | SGSP | ≤ 0.2
133 | QFET | ≤ 0.2
134 | YTIT | ≤ 0.2
135 | RNWG | ≤ 0.2
136 | TKGT | ≤ 0.2
137 | VDRY | ≤ 0.2
138 | QDLQ | ≤ 0.2
139 | MRAY | ≤ 0.2
140 | RCAE | ≤ 0.2
141 | PAVY | ≤ 0.2
142 | DSRK | ≤ 0.2
143 | VNDP | ≤ 0.2
144 | SCGL | ≤ 0.2

Row | Variant | one-hybrid fitness for binding NBS DNA
145 | QREK | ≤ 0.2
146 | WYSI | ≤ 0.2
147 | WSYY | ≤ 0.2
148 | WTHC | ≤ 0.2
149 | HDRC | ≤ 0.2
150 | NLNF | ≤ 0.2
151 | CGTA | ≤ 0.2
152 | FDTS | ≤ 0.2
153 | RYQF | ≤ 0.2
154 | RRNL | ≤ 0.2
155 | PGRN | ≤ 0.2
156 | CELN | ≤ 0.2
157 | AMMM | ≤ 0.2
158 | PDQY | ≤ 0.2
159 | KAKR | 0.33
160 | RKFK | ≤ 0.2
161 | PAPC | ≤ 0.2
162 | RASE | ≤ 0.2
163 | RVNK | ≤ 0.2
164 | HTDR | ≤ 0.2
165 | GGHR | ≤ 0.2
166 | QANI | ≤ 0.2
167 | RMWT | 0.348
168 | NLKC | ≤ 0.2

Row | Variant | one-hybrid fitness for binding NBS DNA
169 | IQQN | ≤ 0.2
170 | QKPA | ≤ 0.2
171 | RWVW | ≤ 0.2
172 | TCMT | ≤ 0.2
173 | PCNT | ≤ 0.2
174 | VEFG | ≤ 0.2
175 | PSSN | ≤ 0.2
176 | WYFT | ≤ 0.2
177 | WDVL | ≤ 0.2
178 | HRKY | ≤ 0.2
179 | SSPD | ≤ 0.2
180 | KAHQ | ≤ 0.2
181 | PFPY | ≤ 0.2
182 | YYKS | ≤ 0.2
183 | WSQV | ≤ 0.2
184 | DIEN | ≤ 0.2
185 | IKTS | ≤ 0.2
186 | TLQY | ≤ 0.2
187 | SYPG | ≤ 0.2
188 | SHLT | ≤ 0.2
189 | ECWS | ≤ 0.2
190 | FADC | ≤ 0.2
191 | YVIY | ≤ 0.2
192 | LADA | ≤ 0.2

Row | Variant | one-hybrid fitness for binding NBS DNA
193 | ICSV | ≤ 0.2
194 | SDEV | ≤ 0.2
195 | MYTS | ≤ 0.2
196 | ERPN | ≤ 0.2
197 | RKRV | 0.237
198 | PSEY | ≤ 0.2
199 | YACA | ≤ 0.2
200 | SPFK | ≤ 0.2
201 | SCSQ | ≤ 0.2
202 | DPMG | ≤ 0.2
203 | RTWQ | ≤ 0.2
204 | AALG | ≤ 0.2
205 | RHIC | ≤ 0.2
206 | FPPR | ≤ 0.2
207 | QIGF | ≤ 0.2
208 | YKER | ≤ 0.2
209 | LSQF | ≤ 0.2
210 | QINA | 0.21
211 | QRTV | 0.412
212 | HTYT | ≤ 0.2
213 | QEDW | ≤ 0.2
214 | AVAC | ≤ 0.2
215 | DLAM | ≤ 0.2
216 | LFNS | ≤ 0.2

Row | Variant | one-hybrid fitness for binding NBS DNA
217 | YLAC | ≤ 0.2
218 | ATVL | ≤ 0.2
219 | LWAS | ≤ 0.2
220 | QHGT | 0.385
221 | CRRG | ≤ 0.2
222 | NDEG | ≤ 0.2
223 | RLFG | ≤ 0.2
224 | YKWR | ≤ 0.2
225 | RTKW | ≤ 0.2
226 | ILPT | ≤ 0.2
227 | CSTE | ≤ 0.2
228 | SSLD | ≤ 0.2
229 | KASL | ≤ 0.2
230 | LNPP | ≤ 0.2
231 | WYLT | ≤ 0.2
232 | VTAI | ≤ 0.2
233 | QRWH | 0.301
234 | AYVY | ≤ 0.2
235 | YNHS | ≤ 0.2
236 | SYRP | ≤ 0.2
237 | YRRL | ≤ 0.2
238 | SCRE | ≤ 0.2
239 | AWTT | ≤ 0.2
240 | DCNG | ≤ 0.2

Row | Variant | one-hybrid fitness for binding NBS DNA
241 | NHSA | ≤ 0.2
242 | STVW | ≤ 0.2
243 | FNIS | ≤ 0.2
244 | HLYG | ≤ 0.2
245 | SSRK | ≤ 0.2
246 | TLEC | ≤ 0.2
247 | LESY | ≤ 0.2
248 | WVAT | ≤ 0.2
249 | HPWP | ≤ 0.2
250 | ENRT | ≤ 0.2
251 | LLYR | ≤ 0.2
252 | VHHK | ≤ 0.2
253 | LSGA | ≤ 0.2
254 | YADA | ≤ 0.2
255 | MYES | ≤ 0.2
256 | AMHT | ≤ 0.2
257 | IIVH | ≤ 0.2
258 | NMQR | ≤ 0.2
259 | GSCR | ≤ 0.2
260 | NGPV | ≤ 0.2
261 | PMDC | ≤ 0.2
262 | KYTR | ≤ 0.2
263 | KCPR | ≤ 0.2
264 | VWSD | ≤ 0.2

Row | Variant | one-hybrid fitness for binding NBS DNA
265 | TIPG | ≤ 0.2
266 | NYEG | ≤ 0.2
267 | CAVT | ≤ 0.2
268 | VLPT | ≤ 0.2
269 | SCTT | ≤ 0.2
270 | AVPQ | ≤ 0.2
271 | LTLD | ≤ 0.2
272 | HWWS | ≤ 0.2
273 | WAHY | ≤ 0.2
274 | DPLR | ≤ 0.2
275 | RSYL | ≤ 0.2
276 | IRNS | ≤ 0.2
277 | AASY | ≤ 0.2
278 | VRNV | ≤ 0.2
279 | MWCS | ≤ 0.2
280 | LDRG | ≤ 0.2
281 | IQAS | ≤ 0.2
282 | LTDE | ≤ 0.2
283 | LAAQ | ≤ 0.2
284 | DRAR | ≤ 0.2
285 | RDSI | ≤ 0.2
286 | EYYF | ≤ 0.2
287 | SYYC | ≤ 0.2
288 | TQIT | ≤ 0.2

Row | Variant | one-hybrid fitness for binding NBS DNA
289 | EKEC | ≤ 0.2
290 | EPER | ≤ 0.2
291 | TTNA | ≤ 0.2
292 | DVPD | ≤ 0.2
293 | PVDR | ≤ 0.2
294 | HERG | ≤ 0.2
295 | TQAE | ≤ 0.2
296 | RIAG | ≤ 0.2
297 | WSDF | ≤ 0.2
298 | HHAL | ≤ 0.2
299 | WKLC | ≤ 0.2
300 | LPLQ | ≤ 0.2
301 | HRID | ≤ 0.2
302 | THCI | ≤ 0.2
303 | WMGR | ≤ 0.2
304 | LQEI | ≤ 0.2
305 | RPGP | ≤ 0.2
306 | HMMK | ≤ 0.2

Source: a collection of fitness landscapes (doi:10.1016/j.celrep.2020.107928)
